SMILES strings stand for the structures. About 4,300 (8.3%) of roughly 52,000 compounds were called active. Rule as the data show it: active = survival mostly below about 52% (no sharp cut-off); inactive = mostly above about 56%. The list shows a part of the results.

The subject of the assay is DeltatarO mutant. As to the kind of experiment: growth inhibition of S. aureus wild type versus tarO mutant, primary screen, teichoic acid synthesis inhibitors, RN4220, OD600 (AID 463173). To be noted: OD600, 18 h, hits give low values, screened at 18.75 µg/mL (by protocol).
`Cc1ccc(OCC(=O)Nc2nc(-c3ccc(Br)cc3)ns2)cc1`: the survival is inactive: 72%. Take `CCCn1ccc2c(OCC(=O)Nc3ccc(OC)c(OC)c3)cccc2c1=O`: the survival is inactive: 95%. For `CCCn1c(SCC(=O)c2ccc3c(c2)OCCO3)nnc1-c1ccco1`, the survival was inactive: 88%. For `O=C(CC(c1cccs1)N1Cc2ccccc2C1=O)Nc1cccc(F)c1` (centres undefined) the value was inactive: 95%; for `Cc1ccc2nc(-c3c[nH]c4ccccc34)c(Nc3ccc(F)cc3)n2c1`, inactive: 67%. Regarding `Cc1ccc(CNC(=O)C(C)n2c(=O)cc(-c3ccccc3)c3c(C)nn(C)c32)cc1` (centres undefined), the survival is inactive: 80%.

For `O=C(CCS(=O)(=O)c1cccc2nonc12)Nc1ccc(F)cc1F`, the survival is inactive: 124%.

Regarding `Cc1ccc(-c2nnn3c2nc(NCc2ccc4c(c2)OCO4)c2ccccc23)cc1`, the survival was inactive: 81%. For `COc1ccccc1N1CCN(C(=O)c2ccc3c(c2)CCN3S(=O)(=O)c2ccccc2)CC1` the value was inactive: 62%; for `Cc1oc(-c2ccccc2Cl)nc1CSc1nncn2c1cc1occc12`, inactive: 60%; for `COc1ccc(Br)cc1CNC(=O)Cn1ncn2nc(-c3cccs3)cc2c1=O`, inactive: 63%. For `CC(=O)Nc1ccc(C(=O)N2CCc3ccccc3C2)cc1` the value was inactive: 99%; for `CC1CCN(C(=O)c2ccc(Br)cc2)CC1`, inactive: 110%.

As to `O=C(CSc1nc(=O)[nH]c2c1CCC2)NCc1ccc(F)cc1`, the survival is inactive: 74%. For the compound `COc1ccc(Cl)cc1S(=O)(=O)N1CCN(C(=O)c2cc(-c3ccc(Br)cc3)n[nH]2)CC1`, the survival was active: 47%.

Regarding `Cc1ccc(-n2ncc3c(N4CCN(Cc5ccccc5)CC4)ncnc32)cc1`, the survival was inactive: 126%. In the case of `Cc1cccc(C(=O)Nc2ccc(S(=O)(=O)N3CCCCC3c3cccnc3)cc2)c1` (centres undefined), the survival is inactive: 87%. For `CCOc1ccccc1CNc1nc2nc(C)c(CC(=O)OC)c(=O)n2[nH]1`, the survival was inactive: 84%. For `CC(=O)N1NC(=Nc2ccccc2)SC1(C)C` the value was inactive: 64%; for `Cc1cc2oc(C(=O)Nc3c(C)n(C)n(-c4ccccc4)c3=O)cc(=O)c2cc1C`, inactive: 78%. Regarding `COc1ccc(-c2cc(C(=O)Nc3c(C)n(C)n(-c4ccccc4)c3=O)no2)cc1`, the survival is active: 46%. For the compound `COC(=O)C(CCSC)NC(=O)c1cc2c(n(-c3ccccc3)c1=O)CC(C)(C)CC2=O` (centres undefined), the survival was inactive: 77%. `CN1C(=O)c2ccccc2Sc2ccc(NC(=O)c3ccc(C#N)cc3)cc21`: the survival was inactive: 88%.

Take `O=C(NCCCc1nc2ccccc2n1Cc1ccccc1F)c1ccco1`: the survival was inactive: 63%.

As for `CCOC(=O)Cn1c(=O)n(-c2ccc(Cl)cc2)c2nc(-c3ccc(Cl)cc3)nc(C(N)=O)c21`, the survival was inactive: 62%. For `Cc1nn(C(C)(C)C)c(OC(=O)c2c(F)cccc2F)c1Sc1ccccc1` the value was inactive: 127%; for `COc1ccc(NC(=O)CN(c2ccc(C)cc2)S(=O)(=O)c2cccs2)cc1`, inactive: 87%; for `COc1cc(CNc2ccc3[nH]c(=O)[nH]c3c2)cc(Cl)c1OCc1ccc(F)cc1`, inactive: 76%. As for `O=c1[nH]c2ccc(S(=O)(=O)Nc3ccccc3)cc2o1`, the survival was inactive: 77%. For the compound `O=C(CCCn1c(=O)c2ccccc2n(Cc2cccc(F)c2)c1=O)NCc1ccccc1Cl`, the survival is inactive: 74%. For `O=C(Nc1ccc(S(=O)(=O)N(Cc2ccccc2)c2ccccc2)cc1)c1ccc(F)cc1`, the survival is inactive: 70%. Next, `O=C(CCc1ccccc1)N1CCc2c([nH]c3ccccc23)C1c1ccc(F)cc1` (centres undefined): inactive: 82%; `CCCCNC(=O)c1sc2ncccc2c1-n1cccc1`: inactive: 55%. Turning to `Nc1c(S(=O)(=O)Cc2ccccc2)sc2nc3c(cc12)CCCC3`, the survival was inactive: 49%. On to `CCOc1ccc(Nc2c3c(nc4nncn24)CCC3)cc1`, for which the survival was inactive: 64%.

`O=C(NCCc1ccccc1)c1cc(-c2ccc(Cl)c(Cl)c2)on1`: the survival was inactive: 57%. Turning to `Cc1c(CC(=O)NCc2ccccc2Cl)c(=O)oc2cc(O)ccc12`, the survival was active: 44%. As for `O=C(O)C1C2C=CC3(CN(Cc4cccc(Cl)c4Cl)C(=O)C13)O2` (centres undefined), the survival was inactive: 101%.

On to `COc1ccc(C(=O)OCc2cc(=O)n3nc(C4CC4)sc3n2)cc1OC`, for which the survival was inactive: 91%.

As to `Cc1ccc2c(=O)cc(C(=O)Nc3nc4ccc(Cl)cc4s3)oc2c1`, the survival was active: 25%. Take `Cc1cccc(C(=O)Nc2ccccc2OCc2cc(=O)n3c(C)csc3n2)c1`: the survival was inactive: 104%. For `O=C(Nc1ccc(C(=O)OCc2cc(=O)n3c4c(sc3n2)CCCC4)cc1)c1cccc(F)c1`, the survival was inactive: 91%. `COc1ccc(CCNc2nc3c(c(=O)n(C)c(=O)n3C)n2Cc2ccccc2Cl)cc1OC`: the survival is inactive: 75%. For `Cc1csc2nc(-c3cccc(NC(=O)c4c(F)cccc4F)c3)cn12` the value was inactive: 128%. As to `O=C(Cn1cc(S(=O)(=O)Cc2ccccc2F)c2ccccc21)NCc1ccccc1`, the survival was inactive: 87%. For `COc1ccc(CCNC(=O)CCn2c(=O)c3ccccc3n(Cc3ccccc3C)c2=O)cc1OC` the value was inactive: 86%.

On to `CCC1CCCCN1C(=O)CSc1nnc(-c2cccnc2)n1-c1ccc(OC)cc1` (centres undefined), for which the survival was inactive: 105%.

With `CN(C)c1ccc(/C=N/c2nc3ccccc3o2)cc1`, the survival was inactive: 85%.

For the compound `CN(C)S(=O)(=O)c1ccc(S(=O)(=O)N(Cc2ccccc2F)C2CC2)cc1`, the survival was inactive: 91%. Consider `CCOc1ccc(-c2nnc(SCC(=O)Nc3cccc(Cl)c3C)o2)cc1`, for which the survival is inactive: 57%.

For `CC(C)Oc1ccc(CNS(=O)(=O)c2ccc(-c3cc(C(F)(F)F)on3)s2)cc1`, the survival was inactive: 77%.

In the case of `Cc1ccc(NC(=O)CCn2cnc3onc(-c4ccc(F)cc4)c3c2=O)c(Br)c1`, the survival is inactive: 102%. As for `Cc1ccc2oc(C(=O)Nc3ccc(S(=O)(=O)Nc4nc(C)cc(C)n4)cc3)cc(=O)c2c1`, the survival is inactive: 99%. `Cc1ccc2nc(CN3CCN(S(=O)(=O)c4ccc(F)cc4)CC3)oc2c1`: the survival was inactive: 72%. Consider `Cc1ccc(-c2nc3c(c(SCC(=O)Nc4cccc(C(=O)O)c4)n2)Cc2cccc(C)c2O3)cc1`, for which the survival is inactive: 67%. Consider `CCN(CC)CCNC(=O)c1ccc2c(=O)n3nc(Nc4ccccc4)sc3nc2c1`, for which the survival was inactive: 101%. On to `CC1=C(C(=O)Nc2cccc(C(F)(F)F)c2)C2(CCN(C(C)C)CC2)OC1=O`, for which the survival was inactive: 84%. Regarding `Cc1cc2c(cc1S(=O)(=O)Nc1cccc(Cl)c1C)OCCN2C`, the survival was inactive: 67%. Turning to `COc1ccc(-c2nc3ccccc3o2)cc1NC(=O)c1ccc(-c2cccc(Cl)c2C)o1`, the survival is inactive: 58%. `Cc1c(-c2nc(-c3ccc4c(c3)OCO4)no2)nnn1-c1cccc(C(F)(F)F)c1`: the survival is inactive: 83%. As for `Cc1ccc(CNC(=O)C2CCCN(Cc3nc(-c4cccc(C)c4)oc3C)C2)cc1` (centres undefined), the survival is inactive: 41%. On to `COc1cccc(NC(=O)C2CCN(c3nnc(-n4c(C)ccc4C)s3)CC2)c1`, for which the survival is inactive: 86%. In the case of `COCCCNC(=O)CN1C(=O)CSc2ccc(S(=O)(=O)N3CCOCC3)cc21`, the survival was inactive: 122%.

Turning to `CCn1cc2nc(SCc3ccc(F)cc3)n(Cc3ccc(Cl)cc3)c(=O)c2n1`, the survival is inactive: 95%. For `CCCS(=O)(=O)N1CC(=O)N(c2ccc(Cl)cc2)C(C)(C(=O)NC2CCCC2)C1` (centres undefined), the survival is inactive: 91%.

With `CC(=O)Nc1ccc(Nc2nnc(-c3ccc(C)c(S(N)(=O)=O)c3)c3ccccc23)cc1`, the survival is inactive: 186%. Regarding `Cc1cc(C)cc(N(CC(=O)NCc2ccco2)C(=O)c2snc(C(N)=O)c2N)c1`, the survival was inactive: 93%. Turning to `COc1ccc2c(c1)CC(C(=O)NCCN1CCN(c3cccc(C)c3C)CC1)CO2` (centres undefined), the survival was inactive: 76%. Next, `COc1ccc2c(c1)c1c(c(=O)n(Cc3ccccc3)c(=O)n1CC(=O)Nc1ccc(C)cc1C)n2C`: active: -2%. With `CC(C)CCNC(=O)Nc1cc(C(=O)NCc2cccc(F)c2)ccc1N1CCCC1`, the survival is inactive: 76%. For `O=C(C1CCN(S(=O)(=O)Cc2ccccc2)CC1)N1CCN(c2cccc(Cl)c2)CC1` the value was inactive: 79%; for `O=C(Nc1nnc(S(=O)(=O)N2CCCCCC2)s1)c1ccccc1Br`, active: 43%; for `Cn1c(=O)[nH]c(=O)c2c1nc1n2CCCN1c1ccccc1`, inactive: 77%.

On to `CSc1cccc(NC(=O)C2CCN(S(=O)(=O)c3ccc4[nH]c5c(c4c3)CCCCC5)CC2)c1`, for which the survival is inactive: 89%. In the case of `Cc1ccc(NC(=O)C2CCCN(S(=O)(=O)c3c(C)n[nH]c3C)C2)cc1C` (centres undefined), the survival was inactive: 129%. As to `CCOC(=O)c1ccc(CN(Cc2ccc(C)cc2)S(=O)(=O)c2ccc(NC(C)=O)cc2)cc1`, the survival was inactive: 73%. As for `Cc1[nH]c2ccc(Cl)cc2c(=O)c1CN1CCN(C)CC1`, the survival was inactive: 95%.

With `CCOC(=O)/C(C#N)=C/N1CCCc2ccccc21`, the survival is inactive: 96%. Take `Cc1ccc(OC(=O)CCC(=O)N2CCc3ccccc32)cc1`: the survival is inactive: 111%. Next, `Cc1ccc(NC(=O)c2oc3ccc(S(=O)(=O)N4CCC5(CC4)OCCO5)cc3c2C)c(C)c1`: inactive: 100%. With `COCCn1c(SCC(=O)Nc2ccc(C(F)(F)F)cc2)nc2c([nH]c3ccccc32)c1=O`, the survival is inactive: 85%. For `O=C(NC(=S)NC1CCSC1=O)c1ccco1` (centres undefined) the value was inactive: 82%; for `O=C(Nc1ccc(S(=O)(=O)N(Cc2ccccc2)c2ccccc2)cc1)c1ccc([N+](=O)[O-])cc1`, inactive: 71%; for `O=C(NCc1ccc2c(c1)CCN2C(=O)c1ccccc1)c1ccco1`, inactive: 80%.

In the case of `COc1ccc(CCN2C(=O)C3CC=C(C)CC3C2=O)cc1OC` (centres undefined), the survival is inactive: 112%. `COc1cccc(N2CCN(C(=O)c3cc4c(=O)n(Cc5ccco5)ccc4nc3C)CC2)c1`: the survival is inactive: 89%. Regarding `O=C(NCc1ccccc1Cl)c1ccc(NC(=O)N2CCSc3ncccc32)cc1`, the survival was inactive: 80%. `CCC1=C(c2ccc(C)cc2)S(=O)(=O)N=C1N1CCC(C(=O)NCc2ccccc2Cl)CC1`: the survival was inactive: 77%. `CCOC(=O)c1cc(S(=O)(=O)N2CCN(c3ccc(F)cc3)CC2)[nH]n1`: the survival was inactive: 73%.

Source of the values: PubChem BioAssay AID463173 (ICCB-Longwood Screening Facility, Harvard Medical School, 2010).
